PubChem BioAssay AID686971 (National Center for Advancing Translational Sciences (NCATS), 2013)
In all, about 360,000 compounds went through this assay and about 7,500 (2.1%) were called active. Inconclusive means that the source gave no clear call. Such entries were picked first, then a sample of the others. Calls follow the shape of the dose curve; as a rule, active = well fitted cell-killing curve with a large enough effect; inconclusive = small, poorly fitted or top-dose-only effect, or effect the other way, or another doubt; inactive = no such curve, though single readings can be large or run the other way. No potency is given beside an inconclusive call; the fits are too rough.

assay: qHTS for induction of synthetic lethality in tumor cells producing 2HG: qHTS for the HT-1080-IDH1KD cell line; conditions: HT-1080 IDH1 knockdown viability, ATP luminescence, 48 h; activity, negative = toxicity: at 46.1 µM (top of the series) unless noted;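 as to activity, negative = toxicity: 0% = DMSO wells and -100% = cell-free medium wells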
How it was run: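 Knockdown cells (IDH1KD HT-1080) received compounds 2 h after plating at 750 cells/well and were kept 48 h at 37 °C in 5% FBS RPMI. A CellTiter-Glo luminescence read gave % activity for curve fitting.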
Potency is read from the fitted curve at half-maximal effect; tags tell the direction and shape of the fitted curve.

Question: For `CC(=O)c1cccc(NS(=O)(=O)c2ccc(N/C=C\C(=O)c3ccc(C)cc3)cc2)c1`, which Potency is on record?
Answer: inconclusive [cytotoxic, single point]

Question: Which Potency does the source give for `Cn1nc(C(C)(C)C)cc1C(=O)Sc1cccc(Br)c1` here?
Answer: inconclusive [cytotoxic, single point]

Question: For `COc1cc(CNc2ncnc3c2ncn3[C@H]2CN(Cc3cccc4ccccc34)C[C@@H](CO)O2)cc(OC)c1OC`, which Potency is on record?
Answer: inconclusive [cytotoxic, single point]

Question: Which “activity, negative = toxicity” value does the source give for `Cc1ccc(OCC(=O)NNC(=O)c2ccoc2C)c(Br)c1` here?
Answer: inactive: -2.39%

Question: For `CN(Cc1ccc2nonc2c1)Cc1nc(CC2CC2)no1`, which “activity, negative = toxicity” value is on record?
Answer: inactive: 3.7%

Question: Which Potency does the source give for `CC(=O)c1ccc(Nc2nc(C(N)CCc3ccccc3)cs2)cc1` (stereo not given) here?
Answer: inconclusive [cytotoxic, partial curve]

Question: With `COc1ccc(-c2noc(CSc3nnc(Cc4ccccc4)n3-c3cccc(C)c3)n2)cc1OC` as the compound, how does the Potency read?
Answer: inconclusive [cytotoxic, partial curve, poor fit]

Question: Which Potency does the source give for `C#CCOCCOCCOCCNc1nc(N2CCN(C(=O)CCCCCCCCCCNC(=O)Cn3cc(CCCCCN)nn3)CC2)nc(N2CCN(C(=O)CCCCCCCCCCNC(=O)[C@H]([C@@H](C)CC)n3cc(CCCCN=C(N)N)nn3)CC2)n1` here?
Answer: inconclusive [cytotoxic, single point]

Question: Which “activity, negative = toxicity” value does the source give for `Cc1ccc(S(=O)(=O)NCCC(=O)N2CCC(C(N)=O)CC2)cc1C` here?
Answer: inactive: 9.09%

Question: With `Cc1ccc(NC(=S)NC(=O)C2CCCCC2)c(Br)c1` as the compound, how does the Potency read?
Answer: inconclusive [cytotoxic, single point]

Question: Which “activity, negative = toxicity” value does the source give for `O=C(NCC1CCCO1)c1ccccc1NS(=O)(=O)c1cccc([N+](=O)[O-])c1` (stereo not given) here?
Answer: inactive: -6.04%

Question: For `CCCCn1c(=N)n(CC(O)COc2ccccc2)c2ccccc21` (stereo not given), which Potency is on record?
Answer: inconclusive [cytotoxic, single point]

Question: With `Cc1cc(Br)c(OCc2ccc(C(=O)N/N=C/c3ccc[nH]3)cc2)c(Br)c1` as the compound, how does the Potency read?
Answer: active: 1.03 µM

Question: With `O=C(Nc1nc(-c2ccc(-c3ccccc3)cc2)cs1)C1=COCCO1` as the compound, how does the Potency read?
Answer: inconclusive [cytotoxic, partial curve]

Question: With `COc1cc2ccccc2cc1C(=O)Nc1ccc(O)cc1` as the compound, how does the Potency read?
Answer: inconclusive [cytotoxic, single point]

Question: For `Cc1ccc(C)c(N(CC(=O)NCCSCc2ccco2)S(C)(=O)=O)c1`, which “activity, negative = toxicity” value is on record?
Answer: inactive: -0.162%

Question: Which Potency does the source give for `CC/C(C)=N\Nc1nc(-c2cc3cc(OC)ccc3oc2=O)cs1` here?
Answer: active: 14.6 µM

Question: Which Potency does the source give for `O=C(Nc1ccc(N2CCCCC2)c(Cl)c1)c1cccnc1` here?
Answer: inconclusive [cytotoxic, partial curve]

Question: With `Cc1ccc(N=C(NOCc2ccc(Cl)cc2Cl)c2nonc2N)c(C)c1` as the compound, how does the Potency read?
Answer: inconclusive [cytotoxic, single point]

Question: For `O=Nc1c2ccc[nH]c-2c2ccc([N+](=O)[O-])cc12`, which Potency is on record?
Answer: inconclusive [rising, single point]

Question: With `CCS(=O)(=O)N1CCN(S(=O)(=O)c2ccc3c(c2)OCCO3)CC1` as the compound, how does the “activity, negative = toxicity” value read?
Answer: inactive: -1.83%

Question: For `O=C(c1cc(-c2ccco2)on1)N1CCN(C(c2ccccc2)c2ccccc2)CC1`, which Potency is on record?
Answer: inconclusive [cytotoxic, single point]

Question: With `O=C(NCCNC(=O)c1ccccc1O)c1ccccc1O` as the compound, how does the “activity, negative = toxicity” value read?
Answer: inactive: -0.519%

Question: For `CC(=O)c1ccc(N2CCN(C(=O)c3cn(Cc4ccccc4)nc3-c3cccnc3)CC2)c(F)c1`, which activity, negative = toxicity is on record?
Answer: inconclusive: -3%

Question: With `Cn1c(CCN2CCCCC2)nc2cc([N+](=O)[O-])ccc21` as the compound, how does the Potency read?
Answer: inconclusive [cytotoxic, single point]

Question: With `Nc1ccc(Cc2nc3c(ccc4ccccc43)[nH]2)cc1` as the compound, how does the Potency read?
Answer: inconclusive [cytotoxic, single point]

Question: For `CN(C)c1ccc(CNc2ccccn2)cc1`, which “activity, negative = toxicity” value is on record?
Answer: inactive: 22.7%

Question: Which Potency does the source give for `CCc1ccc(N2C=C(C(=O)OC)C(c3cccc4ccccc34)C(C#N)=C2N)cc1` (stereo not given) here?
Answer: inconclusive [cytotoxic, full curve]

Question: With `COc1ccc(NC(=O)CN(C)C(=O)CCC2CCCC2)cc1` as the compound, how does the “activity, negative = toxicity” value read?
Answer: inactive: 3.76%

Question: Which Potency does the source give for `CCCCc1c(-c2ccccc2OC)ncn1Cc1ccc(-c2ccccc2)cc1` here?
Answer: inconclusive [cytotoxic, single point]

Question: Which “activity, negative = toxicity” value does the source give for `CCOCCCn1c(=N)c(C(=O)NCCN2CCOCC2)cc2c(=O)n3cccc(C)c3nc21` here?
Answer: inactive: -6.12%

Question: Which Potency does the source give for `CC(C)CCOC(=O)C1C(c2ccccc2)C(C(=O)O)C1c1ccccc1` (stereo not given) here?
Answer: active: 3.66 µM

Question: For `COc1cc2nc(C3CCC3)n(NC(=O)C3CCC(OC)CC3)c(=O)c2cc1OC` (stereo not given), which “activity, negative = toxicity” value is on record?
Answer: inactive: -4.44%

Question: With `Cc1cc(C(F)(F)F)nn1Cc1ccc(C(=O)NCc2ccco2)o1` as the compound, how does the Potency read?
Answer: inconclusive [cytotoxic, single point]

Question: Which “activity, negative = toxicity” value does the source give for `CC(=O)Nc1ccccc1NC(=O)CN(C)S(=O)(=O)c1ccc(C)cc1` here?
Answer: inactive: -2.74%

Question: For `FC(F)(F)c1ccc(CN2C[C@@H]3C(c4ccc(Cl)nc4)C4(c5cccnc5)CC3(C4)[C@H]2c2ccccc2)cc1` (stereo not given in full), which Potency is on record?
Answer: inconclusive [cytotoxic, single point]

Question: With `CN(c1ccccc1)S(=O)(=O)c1cccc(NC(=O)COC(=O)C2CCCCC2)c1` as the compound, how does the “activity, negative = toxicity” value read?
Answer: inactive: 0.592%

Question: Which Potency does the source give for `Cc1ccc(/C=C/C(=O)Nc2ccc([N+](=O)[O-])c(NC(=O)/C=C/c3ccc(C)o3)c2)o1` here?
Answer: inconclusive [cytotoxic, single point]

Question: Which Potency does the source give for `CC(/C=N/NC(=O)c1cc(-c2ccc(C)s2)[nH]n1)=C\c1ccccc1` here?
Answer: active: 7.31 µM

Question: For `Cc1ccc(OCCCCn2cnc3ccccc32)c(C)c1`, which “activity, negative = toxicity” value is on record?
Answer: inactive: -24.2%

Question: For `OC[C@@H]1[C@@H](c2ccc(Cl)cc2)C(c2ccc(F)cc2)=NN1c1ccccc1`, which Potency is on record?
Answer: inconclusive [cytotoxic, single point]

Question: With `COC(=O)c1ccccc1NC(=O)c1ccc(-c2ccc(Br)cc2)o1` as the compound, how does the activity, negative = toxicity read?
Answer: inactive: -1.06% [at 9.24 µM]

Question: For `Cc1n[nH]c(C)c1S(=O)(=O)N1CCCC(C(=O)NC2CCCc3ccccc32)C1` (stereo not given), which “activity, negative = toxicity” value is on record?
Answer: inactive: -0.415%

Question: For `CC(=O)Nc1ccc(S(=O)(=O)NCCSCc2cccc(Cl)c2)cc1`, which “activity, negative = toxicity” value is on record?
Answer: inactive: -21%

Question: With `CC(C)(C)c1cc(OC(=O)C2CCCC2)ccc1O` as the compound, how does the Potency read?
Answer: inconclusive [cytotoxic, single point]

Question: Which “activity, negative = toxicity” value does the source give for `Cc1ccccc1NC(=O)CON=C(N)c1ccccc1` here?
Answer: inactive: 5.96%

Question: For `COc1ccc(Br)cc1S(=O)(=O)N1CCCc2ccccc21`, which “activity, negative = toxicity” value is on record?
Answer: inactive: -15.6%

Question: With `O=C(CSc1nnnn1C1CCCCC1)N1CCc2ccccc21` as the compound, how does the “activity, negative = toxicity” value read?
Answer: inactive: 6.14%

Question: For `O=C(COc1ccc(S(=O)(=O)NC2CCCCC2)cc1Cl)NCc1ccc2c(c1)OCO2`, which Potency is on record?
Answer: inconclusive [cytotoxic, single point]

Question: Which Potency does the source give for `CCN(C[C@H]1N[C@@](Cc2ccccc2)(C(=O)OC)[C@H]2C(=O)N(Cc3ccccc3)C(=O)[C@@H]12)C(=O)Nc1ccc(C)cc1` here?
Answer: inconclusive [cytotoxic, single point]

Question: Which Potency does the source give for `Cc1ccccc1CN(C)CCS(=O)(=O)c1cc(Cl)ccc1Cl` here?
Answer: active: 13 µM

Question: For `Cc1ccc2nc(N3C(=O)CNC3=S)sc2c1`, which Potency is on record?
Answer: active: 16.4 µM

Question: For `CCSc1ccc([C@@H]2[C@H]3C(=O)N(C)C(=O)[C@H]3[C@]3(C(=O)OC)CCCCN23)cc1`, which Potency is on record?
Answer: inconclusive [cytotoxic, single point]

Question: With `CC1CCCCN1S(=O)(=O)c1ccc(C(=O)Nc2nnc(-c3cccs3)o2)cc1` (stereo not given) as the compound, how does the Potency read?
Answer: active: 8.2 µM

Question: With `CCn1nc(C)c(C(=O)Nc2cc(Oc3ccc(Cl)cc3)cc([N+](=O)[O-])c2)c1C` as the compound, how does the Potency read?
Answer: inconclusive [cytotoxic, single point]

Question: With `CC1(C)CC(=O)C2=C(C1)OC1=C(C2)C(=O)CC(C)(C)C1` as the compound, how does the “activity, negative = toxicity” value read?
Answer: inactive: 8.88%

Question: Which “activity, negative = toxicity” value does the source give for `O=C(C1CCCN(S(=O)(=O)c2cnc[nH]2)C1)N1CC(=O)N(CCc2ccccc2)C(=O)C1` (stereo not given) here?
Answer: inactive: 11.7%

Question: Which Potency does the source give for `N#CCCN(Cc1ccccc1)C(CCc1ccccc1)C(=O)NC1CCCCC1` (stereo not given) here?
Answer: inconclusive [cytotoxic, single point]

Question: For `CC(C)C[C@@H](CN1CCC[C@H]1CN1C(=O)C(=O)NC[C@@H]1Cc1ccccc1)N1C[C@H](Cc2ccccc2)N(CC2CCCCCC2)C(=O)C1=O`, which Potency is on record?
Answer: inconclusive [cytotoxic, single point]

Question: With `Cc1cc(C)n(-c2cc(C(C)(C)C)nc3c(-c4ccc(Cl)cc4)cnn23)n1` as the compound, how does the Potency read?
Answer: inconclusive [cytotoxic, single point]

Question: With `COc1cccc(CNC(=O)c2cc3oc4ccccc4c3n2C)c1OC` as the compound, how does the Potency read?
Answer: inconclusive [cytotoxic, partial curve]

Question: With `O=c1[nH]c(SCc2ccccc2F)nc2ccccc12` as the compound, how does the Potency read?
Answer: inconclusive [cytotoxic, partial curve, poor fit]

Question: With `Cc1c(Cl)cccc1NC(=O)CN1CCC(C(O)(c2ccccc2)c2ccccc2)CC1` as the compound, how does the Potency read?
Answer: inconclusive [cytotoxic, single point]

Question: Which Potency does the source give for `O=[N+]([O-])c1cccc(C=NNc2ccc3ccccc3n2)c1O` here?
Answer: inconclusive [cytotoxic, partial curve]

Question: For `Cc1cc(=O)oc2cc(NC(=O)c3cc([N+](=O)[O-])ccc3N3CCOCC3)ccc12`, which “activity, negative = toxicity” value is on record?
Answer: inactive: 5.55%

Question: With `CC(C(=O)Nc1ccc(C#N)cc1)N(C)CC(=O)Nc1ccccc1Br` (stereo not given) as the compound, how does the Potency read?
Answer: active: 23.1 µM

Question: For `Cc1ccc(-c2nnc(-c3cccc(NC(=O)c4cccs4)c3)o2)cc1`, which “activity, negative = toxicity” value is on record?
Answer: inactive: -14.2%

Question: With `CCOC(=O)c1c(NC(=O)CSc2nnc(-c3ccncc3)n2Cc2ccco2)sc(C)c1C` as the compound, how does the Potency read?
Answer: inconclusive [cytotoxic, partial curve]

Question: For `COc1ccc(NC(=O)C2(C)Cc3c(-c4cccc(C(F)(F)F)c4)ccnc3O2)cn1` (stereo not given), which Potency is on record?
Answer: inconclusive [cytotoxic, partial curve]

Question: For `Cc1ccc(S(=O)(=O)NC(C)(C)CSc2nncn2C)cc1`, which Potency is on record?
Answer: inconclusive [cytotoxic, single point]
